The full ranking holds about 33,000 sequences; the median of “E-score (-0.5 to 0.5)” is about -0.04, and the highest 2% start at about 0.36. Some of the results follow.
biological target: T1, Hmlalpha2 (UniProt P0CY09); assay: PBM E-score (8-mer binding enrichment) (E-score (-0.5 to 0.5)); higher = stronger / more preferred TF binding; most listed sequences are background and not binding sites; conditions: protein concentration: 200 nM; construct: GST-full length
T1 sequence: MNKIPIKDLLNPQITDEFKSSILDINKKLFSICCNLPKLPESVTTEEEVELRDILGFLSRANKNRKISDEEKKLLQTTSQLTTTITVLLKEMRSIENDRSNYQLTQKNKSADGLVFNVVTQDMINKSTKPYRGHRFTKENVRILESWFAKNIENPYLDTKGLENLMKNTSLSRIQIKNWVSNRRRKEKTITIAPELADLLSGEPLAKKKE
How it was run: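 Universal all-10-mer Agilent arrays, fresh or stripped once, were converted to double-stranded form by primer extension. GST-tagged yeast transcription factors from PURExpress in vitro transcription/translation, full-length or DNA-binding domain only, were applied at about 100-200 nM and detected with fluorescent anti-GST. After masliner normalisation, the Universal PBM Analysis Suite scored each ungapped eight-base word together with its reverse complement by E-score.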

Row | Sequence | PBM E-score
1 | CATCTTCC | -0.0227
2 | ACCGTCGT | -0.0335
3 | ACATTGGC | 0.126
4 | CACCGGAC | -0.124
5 | CTATTTCA | 0.0151
6 | CTGGGCTA | -0.159
7 | ACGAGCAG | 0.017
8 | AGCGACGG | -0.0437
9 | CGCCAGGA | -0.115
10 | AAATCATA | 0.166
11 | AAGCGAAC | 0.0416
12 | CGCGCTCA | 0.00653
13 | ATACGACC | -0.238
14 | ATCAACTA | 0.201
15 | GCAAAGGA | 0.048
16 | ACATACCC | 0.32
17 | GAATTGCC | -0.248
18 | ATATTCCC | -0.241
19 | AAAGCAGA | -0.141
20 | GACCAACC | -0.0726
21 | CAAGAGGA | -0.0687
22 | CGCCAGCG | -0.232
23 | ACATGATC | 0.426
24 | TTGTGAAA | 0.179
25 | AAGGTTTA | 0.14

Row | Sequence | PBM E-score
26 | CACCCTGC | -0.15
27 | ACGGAAGC | 0.0529
28 | TACCTCAA | -0.00402
29 | GCATTCCC | -0.251
30 | AAGGGTCA | -0.22
31 | ATCTTCTA | -0.0325
32 | GATTTGGA | -0.00992
33 | CATAAATC | 0.0257
34 | GAGTAACA | 0.258
35 | ATTATGCA | 0.113
36 | CCGGGAAA | -0.124
37 | AAAGCATG | 0.218
38 | GGGAGGGA | -0.282
39 | GCTCTCCC | -0.266
40 | AAAATATT | 0.0282
41 | AATGGGGC | -0.307
42 | AGTGGACC | -0.288
43 | ATGTCCGA | -0.0418
44 | CATTAAAC | 0.289
45 | CGATTTAA | 0.0944
46 | CTGTAACC | 0.0254
47 | CAGGGATG | 0.0507
48 | AACTCACG | 0.205
49 | TAGTGAGA | -0.0514
50 | AGTGGTCG | -0.0589

Row | Sequence | PBM E-score
51 | CCTATACG | -0.0575
52 | TAGTTCAA | 0.0271
53 | GGAGTCCC | -0.261
54 | ATCTAACA | 0.113
55 | ATGGAGCG | -0.0564
56 | GGGAAGGA | -0.0843
57 | CGGCGGTA | -0.0603
58 | AAAAAATG | 0.0711
59 | GTTATAGA | 0.368
60 | CCAACGGC | -0.235
61 | CGGATTAG | -0.233
62 | TCCGCAAA | -0.0439
63 | GCGGCTGA | -0.32
64 | AACGTCCA | 0.0778
65 | AAGATCTA | -0.0518
66 | CCCGGTGC | -0.339
67 | CCCTATAC | -0.13
68 | ATTGGCGG | 0.0274
69 | CGGAAGCA | 0.175
70 | ATCGGACA | -0.0193
71 | ACCCCAAG | -0.151
72 | GACCTTAC | 0.0244
73 | CGTGAATA | 0.245
74 | AAGTACCC | -0.0658
75 | CATATATC | -0.00387

Row | Sequence | PBM E-score
76 | CCTGTTAG | 0.0951
77 | ACTCGTAA | 0.187
78 | ATCTGGCG | 0.00932
79 | GAGGCGGA | -0.292
80 | CCAACAGC | -0.143
81 | CCAGACAG | -0.175
82 | TGGTGACA | 0.087
83 | ATCGCGAT | 0.131
84 | CGCTGGTC | -0.201
85 | ATCTCTGG | -0.171
86 | AGGTGTAA | 0.317
87 | CAAAGTGC | -0.151
88 | GATCCTAC | -0.077
89 | ACTCCCCT | -0.21
90 | CGCCACAA | 0.038
91 | TCGCCACA | 0.0514
92 | ACGGGGGC | -0.271
93 | CGTGATTC | -0.115
94 | CCTTTGAA | -0.0803
95 | CATAGTAA | 0.303
96 | TAGATCCA | -0.0367
97 | CTGTGGCA | -0.115
98 | GGGGCCGA | -0.332
99 | ACTATCAC | 0.033
100 | AAGGTACT | 0.178

Row | Sequence | PBM E-score
101 | ATGGCCTC | -0.299
102 | AACCGAGC | -0.0678
103 | AGTGCAAG | 0.0766
104 | AGCGAGTC | -0.136
105 | GAGCGCCC | -0.29
106 | CACAATTC | 0.126
107 | TACATAAA | 0.369
108 | GAGAATGC | 0.0274
109 | TCAATAGA | -0.158
110 | ACAACGCC | 0.182
111 | CGGCCGAG | -0.0616
112 | CCCCAAGC | -0.0543
113 | CCTAGGGA | -0.159
114 | GTGCGATA | -0.161
115 | ATGACTTG | -0.0811
116 | ACTATGTA | 0.444
117 | ATGACTGC | -0.135
118 | GAGTGTGC | 0.0117
119 | CTGAACTC | -0.27
120 | TCCTCCAA | -0.214
121 | GCGTGAAA | 0.156
122 | ACTCCAAT | -0.194
123 | AATACCCG | 0.154
124 | ATCTTCGA | -0.0503
125 | CTGGCAAA | -0.187

Row | Sequence | PBM E-score
126 | GCCCACGA | -0.235
127 | GAGTAAAA | 0.237
128 | ACTAAATG | 0.045
129 | CAGGAAGC | 0.113
130 | GCGTGCAA | 0.0696
131 | AAGCTGGG | -0.111
132 | AAAACCGG | -0.0753
133 | AGTGCCAC | -0.215
134 | AGATGTCC | -0.135
135 | CTAAGACC | -0.104
136 | CTCCATAA | -0.0461
137 | AAGTGCCG | 0.00934
138 | GCTGGACA | -0.16
139 | AGAGCCAA | 0.146
140 | TGGGACCA | -0.0796
141 | AAAAAACC | 0.0318
142 | CCGCGAGG | -0.209
143 | CTCTTCGA | -0.0692
144 | AGCGGACG | -0.202
145 | AGTCTCCC | -0.235
146 | CGCTGAAA | -0.0693
147 | AGCTATAT | 0.00915
148 | GGGCGAGA | -0.26
149 | GCCTCCTA | -0.285
150 | TCAATTCA | 0.0847

Row | Sequence | PBM E-score
151 | CCCTTCCC | -0.199
152 | TAGCCTAA | -0.105
153 | GAGGCGGC | -0.213
154 | ACTGGTGC | -0.0311
155 | GTAGGGAC | -0.0289
156 | CATATGAG | -0.12
157 | GGCAGGAA | -0.102
158 | GTACGGTA | 0.0183
159 | ACCAAGAC | -0.0972
160 | ATCCGAAA | -0.155
161 | TCAGTTAA | 0.135
162 | ACTGCATG | 0.235
163 | TAAGCTTA | 0.269
164 | TTCAAAAA | 0.0951
165 | CCATCTGA | -0.104
166 | CAAGCAAA | 0.117
167 | CACACATC | 0.144
168 | GTCGGACA | -0.0634
169 | TGGAGACA | -0.153
170 | AGGATATA | 0.116
171 | GCTTTAGA | -0.141
172 | CCAGTGTA | 0.183
